Experimental data as given in the supplement of paper PMC7826260.
This is one part of the list. The data describe in vitro nicking of single-stranded DNA by Rep domains at 3 µM enzyme and 37 °C for 1 h; the strands have 90 letters, of which the middle is given. Values are log2 of uncut reads against the no-enzyme pool; more negative means more cut, near 0 not cut, and no call is made. Counts are relative to all reads, so uncut sequences can rise above 0 when many others are cut.

system: T1, Rep nickase domain of tomato yellow leaf curl virus; test: uncleaved DNA left, log2 of reads against the no-enzyme library (log2 ratio); higher = less cleavage (more negative = more Rep cleavage of the k-mer); sequences stand for … in CTCGTCCG…ACCGGAGA
T1 sequence (Rep 1-136, printed without the tag): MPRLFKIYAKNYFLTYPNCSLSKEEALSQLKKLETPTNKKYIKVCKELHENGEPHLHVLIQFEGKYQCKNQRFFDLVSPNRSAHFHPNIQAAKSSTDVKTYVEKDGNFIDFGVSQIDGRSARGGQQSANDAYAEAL
Protocol: (§1)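 A pool of 90-nt single-stranded DNAs with seven random bases just before the constant AC of the nick site (name = the seven bases) was cut by 3 µM recombinant His6-SUMO-tagged Rep nickase domain (300 nM DNA, 50 mM HEPES pH 8.0, 50 mM NaCl, 1 mM MnCl2, 1 h, 37 °C, three replicates). Uncut DNA was amplified and sequenced.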

Sequence	uncleaved DNA left (log2)
CACGTGG	-0.0402
CCGGTAT	0.0344
GAAAATG	-0.00537
GATGAGG	-0.0664
CGCTATC	0.0236
GATCTGT	0.00824
GCATTCG	-0.0386
GTAGCCT	-0.0169
TTCTAAC	-0.0368
AGCTATA	-0.0631
GTCGTTA	-0.0253
AGTCCTC	0.0967
CAAATAT	-0.0405
GTGGAAT	0.0855
TCTCTCG	-0.114
GCGACTG	-0.14
ATGTTTG	0.176
CCGTCAC	0.0447
AATACTC	-0.0782
CATGCCG	-0.0355

Sequence	uncleaved DNA left (log2)
ACACGAA	-0.0689
GGTTCCC	0.0801
GAAAAGA	0.056
AGAGGGG	0.0429
ATACTGC	0.0511
ACGTACT	-0.224
AAACACT	-0.0985
GTTCGCG	-0.0613
CTATTCC	0.114
TGGAGAT	0.0201
TCGATTA	-0.159
TAAGCGC	0.123
TGGGAGA	0.0974
GATACTG	-0.00764
TACATTT	-0.149
TAAACTA	0.0313
AGCAACT	0.00158
CATATAC	0.0188
AGCTGAG	0.176
TTGAAAG	0.0479

system: T2, Rep nickase domain of wheat dwarf virus; test: as above
T2 sequence (Rep 1-137, printed without the tag): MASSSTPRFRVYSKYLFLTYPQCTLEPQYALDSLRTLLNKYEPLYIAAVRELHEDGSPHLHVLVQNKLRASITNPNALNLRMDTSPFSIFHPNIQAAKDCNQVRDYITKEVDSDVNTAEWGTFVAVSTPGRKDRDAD
Protocol: as §1

Sequence	uncleaved DNA left (log2)
CACGTGG	-0.0144
CCGGTAT	0.114
GAAAATG	0.107
GATGAGG	0.144
CGCTATC	0.0337
GATCTGT	0.0265
GCATTCG	-0.12
GTAGCCT	0.108
TTCTAAC	0.0162
AGCTATA	0.107
GTCGTTA	-0.0226
AGTCCTC	0.109
CAAATAT	-0.818
GTGGAAT	0.224
TCTCTCG	-0.118
GCGACTG	0.0329
ATGTTTG	-0.0276
CCGTCAC	-0.00597
AATACTC	-0.004
CATGCCG	-0.126

Sequence	uncleaved DNA left (log2)
ACACGAA	-0.109
GGTTCCC	-0.00703
GAAAAGA	0.0665
AGAGGGG	0.212
ATACTGC	0.0886
ACGTACT	-0.339
AAACACT	-0.438
GTTCGCG	-0.292
CTATTCC	0.00144
TGGAGAT	0.11
TCGATTA	-0.033
TAAGCGC	-0.22
TGGGAGA	0.0546
GATACTG	0.111
TACATTT	-0.642
TAAACTA	-0.728
AGCAACT	0.0589
CATATAC	0.0195
AGCTGAG	0.076
TTGAAAG	0.00347
